According to PubChem BioAssay AID588591 (National Center for Advancing Translational Sciences (NCATS), 2011):
Screen size: about 390,000 compounds; about 4,700 (1.2%) were called active. Inconclusive means that the source gave no clear call. Such entries were picked first, then a sample of the others. Calls follow the shape of the dose curve; as a rule, active = well fitted inhibition curve with a large enough effect; inconclusive = small, poorly fitted or top-dose-only effect, or another doubt; inactive = no such curve, though single readings can be large or run the other way. Potencies of inconclusive entries are doubtful fits and often do not repeat.

biological target: DNA polymerase eta (Homo sapiens) (UniProt Q9Y253); assay: qHTS for Inhibitors of Polymerase Eta; conditions: recombinant Pol eta, fluorescent DNA replication assay; series mostly up to 114 µM
UniProt Q9Y253, sequence (Q9Y253 whole entry, looked up): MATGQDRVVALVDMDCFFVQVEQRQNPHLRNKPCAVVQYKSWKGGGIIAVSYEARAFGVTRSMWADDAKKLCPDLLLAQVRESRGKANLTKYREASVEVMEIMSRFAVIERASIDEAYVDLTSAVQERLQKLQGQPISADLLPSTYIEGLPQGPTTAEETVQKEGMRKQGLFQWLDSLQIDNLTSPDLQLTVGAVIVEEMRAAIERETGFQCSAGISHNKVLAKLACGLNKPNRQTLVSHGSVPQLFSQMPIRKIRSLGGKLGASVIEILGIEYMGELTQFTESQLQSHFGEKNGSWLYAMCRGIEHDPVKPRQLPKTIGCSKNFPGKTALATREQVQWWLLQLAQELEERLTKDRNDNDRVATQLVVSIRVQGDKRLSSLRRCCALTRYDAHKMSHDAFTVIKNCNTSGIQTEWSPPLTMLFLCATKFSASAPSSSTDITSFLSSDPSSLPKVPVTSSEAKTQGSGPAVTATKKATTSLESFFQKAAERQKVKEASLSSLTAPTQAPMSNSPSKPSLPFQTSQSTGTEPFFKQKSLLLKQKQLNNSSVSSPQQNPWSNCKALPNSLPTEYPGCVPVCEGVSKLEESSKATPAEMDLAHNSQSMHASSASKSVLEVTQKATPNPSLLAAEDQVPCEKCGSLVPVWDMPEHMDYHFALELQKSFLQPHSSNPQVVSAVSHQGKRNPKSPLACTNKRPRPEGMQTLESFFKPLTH
Procedure, shortened: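 Fluorescent replication assay: 50 nM final substrate added after a 15 min room-temperature compound preincubation with 10 nM enzyme. Signal taken at 0 min and again at 10 min.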
Potency is read from the fitted curve at half-maximal effect; tags tell the direction and shape of the fitted curve.

Compound	Potency
O=C(O)CCCNC(=O)/C=C/c1ccco1	active: 3.98 µM
COCCCNC(=O)C[C@H]1C[C@H](C(=O)N2CCOCC2)[C@@]2(CCC3CCCC3)c3[nH]c4cc(-c5ccco5)ccc4c3CCN2C1=O	inconclusive: 79.4 µM [inhibitor, partial curve, poor fit]
CCC(=O)N1CCc2cc(Br)cc(S(=O)(=O)CCC(=O)NCCc3ccc(Cl)cc3)c21	inactive
COc1ccc(C2C(C(=O)/C=C/c3ccco3)=C(O)C(=O)N2CCN2CCOCC2)cc1OC (centres undefined)	inconclusive: 25.1 µM [inhibitor, full curve, poor fit]
CCOc1ccc(NC(=O)Nc2ccc3nccnc3c2)cc1	inconclusive: 28.2 µM [inhibitor, single point]
COc1ccc2c(c1OC)C(=O)OC2Nc1nc(-c2ccc(-c3ccccc3)cc2)cs1 (centres undefined)	inconclusive: 14.1 µM [inhibitor, partial curve, poor fit]
Cc1ccc2c(c1)CCCN2C(=O)Nc1ccc2c(c1)OCO2	inconclusive: 39.8 µM [inhibitor, partial curve, poor fit]
Cc1ccc(CN(c2ccc(C(=O)NCC3CCCO3)cc2)S(C)(=O)=O)cc1 (centres undefined)	inconclusive: 100 µM [inhibitor, partial curve, poor fit]
Cc1ccc(-c2cc(C(=O)Nc3ccccc3C(N)=O)c3ccccc3n2)o1	active: 50.1 µM
COc1ccc([N+](=O)[O-])cc1NC(=S)NC(NC(=O)Cc1ccc(OC)c(OC)c1)C(Cl)(Cl)Cl (centres undefined)	inconclusive: 10 µM [inhibitor, partial curve]
CCOc1ccc(CC(=O)N2CCN=C2SCc2ccc([N+](=O)[O-])cc2)cc1	inconclusive: 79.4 µM [inhibitor, partial curve, poor fit]
CCc1nnc(NS(=O)(=O)c2ccc(N/C=C\C(=O)c3ccc4ccccc4c3)cc2)s1	active: 50.1 µM
CC(C)CCN(Cc1ccco1)C(=O)c1cc2c(Cl)nc3ccccc3c2s1	inactive
Cc1cc2cc(C=C(C#N)C#N)c(Cl)nc2cc1C	inconclusive: 20 µM [inhibitor, partial curve]
CC(C)C[C@@H](CO)N1CCN(Cc2ccc([N+](=O)[O-])cc2)CCC1=O	inactive
COc1cc(/C=N/NC(=S)NCc2ccco2)cc(OC)c1OC	inconclusive: 56.2 µM [inhibitor, partial curve, poor fit]
COC(=O)c1[nH]c2c(c1C)C(=O)CC(c1ccc(C)cc1)C2 (centres undefined)	inconclusive: 31.6 µM [inhibitor, partial curve, poor fit]
CC1=CN2C(=N)/C(=C/c3ccc([N+](=O)[O-])o3)C(=O)N=C2S1	active: 3.98 µM
CN(Cc1ccccc1)S(=O)(=O)c1ccc2[nH]c(=O)ccc2c1	inactive
Cc1c(C(=O)O)cccc1-c1ccc(/C=N/n2cnnc2)o1	active: 20 µM

Compound	Potency
CCn1cc(/C=C/C(=O)c2ccc(O)cc2)c(C)n1	inconclusive: 79.4 µM [inhibitor, partial curve, poor fit]
CC(NC(=O)C1CCN(C(=O)c2ccc(F)cc2)CC1)c1ccc(-n2ccnc2)cc1 (centres undefined)	inactive
O=C(COc1ccccc1)N/N=C/c1ccc([N+](=O)[O-])o1	inconclusive: 50.1 µM [inhibitor, partial curve]
O=C(/C=C/Sc1ccccc1)c1ccccc1	inconclusive: 89.1 µM [inhibitor, partial curve, poor fit]
COC(=O)C1=C(C)N(CC2CC2)C(=NCc2cccc(C(F)(F)F)c2)N[C@H]1c1ccccc1	inconclusive: 100 µM [inhibitor, partial curve, poor fit]
CCOc1ccc(C2C3=C(CCCC3=O)N(CC(=O)O)C3=C2C(=O)CCC3)cc1	inconclusive: 25.1 µM [inhibitor, full curve]
COc1ccccc1/C=N/NC(=O)c1cc2c(OC)c(OC)ccc2[nH]1	inconclusive: 35.5 µM [inhibitor, full curve, poor fit]
COCCCNC(=O)c1sc2nc(C)c(C(=O)Nc3ccc(C)cc3C)c(-c3ccc(Cl)cc3)c2c1N	inactive
CC(=O)Oc1ccccc1-c1nc(C)nc(N(C)C(C)=O)n1	inactive
Cc1ccc(-n2nnnc2SCC(=O)NCC2(N3CCOCC3)CCCCC2)cc1	inconclusive: 0.282 µM [inhibitor, full curve, poor fit]
O=C(NCc1ccco1)c1ccc2[nH]c(=O)c(=O)[nH]c2c1	inconclusive: 39.8 µM [inhibitor, partial curve, poor fit]
O=C(O)c1cc(-c2ccc(/C=N/N3C(=O)C4C5C=CC(C6CC56)C4C3=O)o2)ccc1Cl (centres undefined)	inconclusive: 56.2 µM [inhibitor, partial curve, poor fit]
O=C(O)c1cccc(Cn2c(Cl)c(/C=N/NC(=O)c3ccccc3)sc2=O)c1	inconclusive: 28.2 µM [inhibitor, partial curve, poor fit]
CCOC(=O)c1c(C)[nH]c(C(=O)/C(C#N)=C/c2ccc(OCC)cc2)c1C	inconclusive: 39.8 µM [inhibitor, single point]
COc1ccc(C(=O)Nc2ccccc2C(=O)NC(Cc2ccc(O)cc2)C(=O)NNC(=O)c2ccccc2Cl)cc1 (centres undefined)	inconclusive: 17.8 µM [inhibitor, partial curve, poor fit]
COc1ccc(N2C(=O)C3CCCN3C2c2ccc(F)cc2)cc1Cl (centres undefined)	inconclusive: 89.1 µM [inhibitor, single point]
Cc1cc(C)cc(NC(=O)CCNS(=O)(=O)c2cc(Br)cnc2N)c1	inconclusive: 50.1 µM [inhibitor, partial curve, poor fit]
NC(=O)Cc1ccc(Nc2nnc(-c3ccc(O)cc3)c3ccccc23)cc1	inconclusive: 50.1 µM [inhibitor, partial curve]
CC1CCN(C(=O)c2ccc(SCc3ccccc3F)c([N+](=O)[O-])c2)CC1	inconclusive: 79.4 µM [inhibitor, partial curve, poor fit]
